# Among all 310,000 compounds or so, about 14,000 (4.5%) showed an effect of 50% or more. The effect is printed as a negative number. The list shows a part of the results.
# Target: human ether-à-go-go-related gene (hERG) potassium channel (human, UniProt Q12809)
# Assay: primary screen, population patch clamp on CHO cells stably expressing hERG
# 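Note: peak tail current of the secondary pulse compared with the same well before compound.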
# Sequence of human ether-à-go-go-related gene (hERG) potassium channel (Q12809 whole entry, looked up): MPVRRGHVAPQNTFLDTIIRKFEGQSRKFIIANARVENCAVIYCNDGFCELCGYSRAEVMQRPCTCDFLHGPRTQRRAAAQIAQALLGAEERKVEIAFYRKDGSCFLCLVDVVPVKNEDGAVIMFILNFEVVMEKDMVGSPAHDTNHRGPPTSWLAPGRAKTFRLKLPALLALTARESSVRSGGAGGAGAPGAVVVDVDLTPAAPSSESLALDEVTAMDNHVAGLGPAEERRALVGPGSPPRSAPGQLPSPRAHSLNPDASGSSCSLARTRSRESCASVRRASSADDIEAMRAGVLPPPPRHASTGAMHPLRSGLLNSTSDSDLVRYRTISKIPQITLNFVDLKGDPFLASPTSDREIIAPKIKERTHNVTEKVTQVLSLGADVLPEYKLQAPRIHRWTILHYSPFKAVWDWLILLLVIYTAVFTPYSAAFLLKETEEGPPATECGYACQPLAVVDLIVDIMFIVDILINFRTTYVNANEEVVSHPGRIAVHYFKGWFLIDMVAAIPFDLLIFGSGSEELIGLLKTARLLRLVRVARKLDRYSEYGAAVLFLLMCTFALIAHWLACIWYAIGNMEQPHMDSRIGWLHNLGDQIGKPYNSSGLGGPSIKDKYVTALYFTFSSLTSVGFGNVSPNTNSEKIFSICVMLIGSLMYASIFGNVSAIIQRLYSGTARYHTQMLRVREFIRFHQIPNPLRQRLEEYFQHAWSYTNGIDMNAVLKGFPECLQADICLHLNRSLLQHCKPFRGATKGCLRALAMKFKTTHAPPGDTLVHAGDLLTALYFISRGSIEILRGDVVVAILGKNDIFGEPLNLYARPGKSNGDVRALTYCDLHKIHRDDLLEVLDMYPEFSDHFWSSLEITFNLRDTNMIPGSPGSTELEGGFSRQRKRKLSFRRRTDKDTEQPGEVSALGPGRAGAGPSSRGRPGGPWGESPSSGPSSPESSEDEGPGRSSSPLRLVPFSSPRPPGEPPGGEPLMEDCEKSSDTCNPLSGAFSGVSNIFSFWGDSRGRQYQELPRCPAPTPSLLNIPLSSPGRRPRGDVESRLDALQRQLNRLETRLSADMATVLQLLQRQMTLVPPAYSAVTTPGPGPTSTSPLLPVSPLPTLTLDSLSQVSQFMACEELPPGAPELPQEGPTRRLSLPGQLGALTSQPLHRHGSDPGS
row,SMILES,"hERG current change (%, negative = inhibition) at 10uM"
1,Cc1cc(SCC(=O)N/N=C/c2ccco2)nc2ccccc12,-1.74%
2,CCN(CC)CCCN=Cc1c(O)n(-c2cccc(C)c2C)c(=O)[nH]c1=O,-10.9%
3,Cc1cccc(C)c1NC(=O)C1CCCN1S(=O)(=O)c1ccc2c(c1)n(C)c(=O)c(=O)n2C (stereo not shown),9.71%
4,COc1ccc(S(=O)(=O)Nc2ccc3oc4ncccc4c(=O)c3c2)cc1OC,11.3%
5,O=C(CSc1cccc(C(F)(F)F)c1)NC(=O)c1ccccc1,12.8%
6,O=C(O)CC(c1ccccc1)n1cnnn1 (stereo not shown),0.93%
7,COc1ccc(OCC(=O)N/N=C(\C)c2ccc(OC)cc2)cc1,-9.1%
8,COc1ccc(/C=N\NC(=O)c2ccccc2)cc1COc1ccc(F)cc1,-0.876%
9,O=C(NC1CCCC1)c1ccc(CN2CCOCC2)cc1,0.596%
10,COc1ccc(Cl)cc1S(=O)(=O)N1CCN(C(=O)c2ccco2)CC1,-13.6%
11,CCn1cc(C(=O)O)c(=O)c2cc(F)c(N3CCN(C(=O)Nc4ccccc4)CC3)cc21,4.51%
12,CCCCCCCCCC(=O)Nc1cccnc1,-8.54%
13,CCOc1ccc(NC(=O)CN2C(=O)CSC2=O)cc1,24.1%
14,Cc1ccc(N2Cc3ccccc3OC(C)C2=O)cc1 (stereo not shown),1.95%
15,COc1ccc(C(=O)NCc2ccncc2)cc1S(=O)(=O)N1CCOCC1,2.47%
16,C/C(CC(=O)Nc1cccc(C(F)(F)F)c1)=N/NC(=O)C(=O)NCCO,26.5%
17,O=C1/C(=C/c2ccncc2)SC(=S)N1N1CCOCC1,12.2%
18,O=S(=O)(Nc1ccc(Br)cn1)c1ccc2ccccc2c1,35.6%
19,COc1ccccc1-c1ccc(Nc2ccc(C(=O)N3CCOCC3)cc2)nn1,-20.1%
20,COc1ccc(O)c(-c2[nH]ncc2C(=O)c2ccccc2C)c1,-8.46%
21,COC(=O)c1[nH]c2ccc(C)cc2c1NC(=O)Nc1ccccc1OC,-0.737%
22,CC(C)(C)c1ccc(C(=O)N/C(=C\c2cccs2)C(=O)NCc2ccco2)cc1,-0.0534%
23,Cc1nn(C)cc1CN(C)Cc1c(C(=O)N(C)Cc2ccccc2)nc2ccccn12,-17.5%
24,O=C(CCNC(=O)c1ccccc1Cl)Nc1nccs1,12.4%
25,O=C(C1CCCO1)N1CCN(C(=S)Nc2ccc(Cl)cc2)CC1 (stereo not shown),-27.7%

# Reference: publication PMC4336329 (PLoS ONE, 2015)
